Measured values from the supplement of paper PMC4166925.
± gives the standard deviation of the averaged measurements. In all, about 33,000 sequences were measured (“E-score (dimensionless, -0.5 to 0.5)”: median about -0.046, highest 2% from about 0.36 on). The list shows a part of the results.

tested on: T1, SpTbr T-box DNA-binding domain (GST fusion); assay: PBM E-score of 8-mer (E-score (dimensionless, -0.5 to 0.5)); Tbr is Tbrain of the sea star Patiria miniata (Pm) or the sea urchin Strongylocentrotus purpuratus (Sp); higher = stronger binding preference; most listed sequences are background and not binding sites; details: the construct has about 5 more residues each side
T1 sequence: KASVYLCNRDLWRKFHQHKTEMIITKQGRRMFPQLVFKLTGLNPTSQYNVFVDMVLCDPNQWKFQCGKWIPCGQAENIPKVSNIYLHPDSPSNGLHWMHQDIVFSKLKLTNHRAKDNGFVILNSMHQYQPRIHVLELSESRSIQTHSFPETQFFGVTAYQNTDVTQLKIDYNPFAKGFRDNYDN
Method in brief: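 Each ungapped 8-mer received an enrichment E-score from the Universal PBM Analysis Suite, averaged over duplicate arrays. The proteins were Tbr T-box DNA-binding domains, covering the whole T-box plus about five flanking residues, fused to GST and expressed in BL21 E. coli at 20 °C before glutathione affinity purification. Universal Agilent oligonucleotide arrays were made double-stranded by primer extension and incubated with 200 nM protein in PBS (pH 7.5). The arrays were then scanned and quantified, and every 8-mer was scored from probe intensities.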

Sequence | PBM E-score of 8-mer
CGGAGTGA | 0.156 ± 0.0067
ACTCTCCT | -0.273 ± 0.084
AATGTCAG | 0.0267 ± 0.006
CAAAGATC | -0.077 ± 0.049
ACTCTCTA | -0.104 ± 0.054
GCCGACGC | 0.139 ± 0.08
ACCGGCAA | 0.0514 ± 0.024
GACGACAC | 0.301 ± 0.039
CAGATGAA | -0.178 ± 0.024
AACAGCCG | 0.057 ± 0.052
ACAGCATA | -0.105 ± 0.044
AGTTTACC | -0.0346 ± 0.0032
GCAGCGCA | -0.144 ± 0.065
CTTTATCA | 0.112 ± 0.1
ATGCATCA | 0.0819 ± 0.023
AAACGCCC | -0.134 ± 0.035
CACAACTC | 0.25 ± 0.0039
CAAACAAG | -0.0153 ± 0.01
GCATCTCA | 0.0109 ± 0.05
ATACAAGG | -0.0736 ± 0.053
GGAGACAC | 0.193 ± 0.045
CACTATAC | 0.1235 ± 0.00072

Sequence | PBM E-score of 8-mer
AATGTGTA | 0.207 ± 0.05
AGGGACGG | -0.234 ± 0.02
CGCCGCGC | 0.182 ± 0.05
TATCGCAA | 0.157 ± 0.034
CAGAAGCC | -0.308 ± 0.064
GAGTGAAC | 0.135 ± 0.004
ACTTAACA | 0.278 ± 0.007
AGCTCACG | 0.218 ± 0.011
ACAAAGCA | 0.0986 ± 0.034
CGCTACAC | 0.157 ± 0.037
ATACCTGC | -0.0105 ± 0.0085
ATCGTAAT | -0.054 ± 0.019
AGCTAATG | -0.121 ± 0.004
CCATTCAA | -0.212 ± 0.025
CGAGACAA | -0.0311 ± 0.082
ATGTTTTC | -0.113 ± 0.097
ATCAAATA | -0.182 ± 0.015
GATGTGCA | 0.104 ± 0.0087
ATGGTTGC | -0.111 ± 0.059
ATGACGTA | -0.161 ± 0.027
CAAGAACG | -0.267 ± 0.011
ATCCTAAT | -0.0123 ± 0.069

Sequence | PBM E-score of 8-mer
ACCCAGCA | -0.0902 ± 0.02
ATCATCTA | 0.0151 ± 0.025
CCTTGTTC | 0.0575 ± 0.0017
CACCCAGA | 0.0853 ± 0.003
CATTGGCG | 0.188 ± 0.021
ATAGTGAC | 0.186 ± 0.035
GCAGCGAA | 0.104 ± 0.068
ATTCTAGG | -0.144 ± 0.065
AGGAACAG | -0.0437 ± 0.058
CTACAGAC | 0.1 ± 0.042
CGACCCAA | -0.047 ± 0.0032
GAATTGTC | 0.114 ± 0.046
ATCTGAGG | -0.0695 ± 0.017
CTCCCGCC | 0.0623 ± 0.0039
AGCAGAGG | -0.166 ± 0.026
ACGTTCTC | 0.154 ± 0.065
CGCTTCAC | 0.235 ± 0.042
GGGGAACA | -0.168 ± 0.05
ATACCCGA | -0.0946 ± 0.026
AGAGTAGG | -0.2048 ± 0.001
ACTCTTGC | -0.146 ± 0.036
AGTCAAAT | -0.128 ± 0.0056

Sequence | PBM E-score of 8-mer
ATGATAGG | -0.0451 ± 0.051
AGGGTCCA | -0.251 ± 0.041
GCATACGC | -0.176 ± 0.088
AGCAGTAA | -0.0816 ± 0.014
GTGGTTTA | -0.0725 ± 0.0017
CAGAGCGA | -0.0771 ± 0.06
TTATTCAA | -0.192 ± 0.064
AGGGGCGA | 0.0688 ± 0.05
CCTCGCAA | 0.102 ± 0.077
GCGCGCCA | 0.133 ± 0.087
ACATCTAA | -0.0272 ± 0.027
AACCCTCG | -0.144 ± 0.00099
CTCCGGAG | -0.102 ± 0.1
ACATTGAG | -0.0909 ± 0.037
GACTTAGA | -0.151 ± 0.12
CACCCTTC | 0.223 ± 0.091
TTACATAA | -0.159 ± 0.063
TCCGCGGA | 0.12 ± 0.015
CAACAAAA | 0.0801 ± 0.058
AGGAAACG | -0.0312 ± 0.015
CCCGTAAC | 0.04512 ± 0.00042
TGAGGCAA | -0.0235 ± 0.018

Sequence | PBM E-score of 8-mer
ACTCTATG | -0.0733 ± 0.034
ACGGTCAG | 0.0832 ± 0.032
ACTGTGAA | 0.413 ± 0.0064
CACTTGCA | 0.336 ± 0.012
CAAGGCGA | 0.159 ± 0.041
GGTGAGAA | 0.4745 ± 0.0016
ACTCGATC | -0.0258 ± 0.031
CAGTTACG | -0.05462 ± 0.00042
TCCAGAAA | -0.167 ± 0.023
ATGCTATC | 0.011 ± 0.02
CTAAGTGA | 0.104 ± 0.047
GCGCCATA | 0.0555 ± 0.011
AGTTTGCA | 0.136 ± 0.066
AAATGCAG | -0.289 ± 0.028
TCTTGCCA | 0.0555 ± 0.002
TCAGGGAA | -0.125 ± 0.011
CGTCGTAA | -0.0772 ± 0.029
CACAGATC | 0.0391 ± 0.007
AATGGGTC | -0.142 ± 0.097
CCGATCCC | -0.168 ± 0.0025
AAGATTGG | -0.15 ± 0.095
GGCACGAC | 0.00524 ± 0.06
